From PMC7819943, “Rice protein-binding microarrays: a tool to detect cis-acting elements near promoter regions in rice”
Some of the results follow.

biological target: T1, OsWOX13 (Oryza sativa, UniProt Q5QMM3 1-267); assay: protein-binding microarray (RPBM); PBS, 2% BSA, 51.3 ng/ul salmon testes DNA, 50 uM zinc acetate, 200 nM TF, 25 C, 1 h; high values mean tight binding; settings: protein: recombinant; tags: N-terminal polyhistidine and DsRed monomer fusion (pET32a); label: CyDye5-dUTP incorporated in the synthesized complementary strand; 3' TTTTT single-stranded linker to array surface; dsDNA, one strand shown
T1 sequence: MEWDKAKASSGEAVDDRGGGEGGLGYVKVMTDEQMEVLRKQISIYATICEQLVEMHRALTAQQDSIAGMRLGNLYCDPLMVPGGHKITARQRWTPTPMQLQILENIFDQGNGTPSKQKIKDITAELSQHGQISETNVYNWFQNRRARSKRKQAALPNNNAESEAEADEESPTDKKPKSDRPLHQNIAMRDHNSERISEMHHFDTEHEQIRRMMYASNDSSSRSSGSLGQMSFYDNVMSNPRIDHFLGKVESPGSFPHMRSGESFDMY
Outline: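 Per-feature fluorescence intensity (arbitrary units), read on an Axon 4000B scanner, is the binding signal. Transcription factors carrying an N-terminal polyhistidine tag and DsRed fusion were expressed in E. coli BL21-CodonPlus and purified on Ni–NTA. A custom Agilent array, made double-stranded by primer extension with Cy5-dUTP and blocked with 2% BSA, was incubated with 200 nM protein in PBS, 2% BSA, salmon testes DNA and 50 µM zinc acetate at 25 °C for 1 h and then washed.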

**Q.** “GCTAAATACAAATTTGTTGCCACGGTTATTTATGGTGTGGCGGAGTCACCTAGTGCAG” was tested. Which binding signal did it give?
**A.** 11000 fluorescence intensity (a.u.)

**Q.** With “AGGGATCAATGATCAATCTAAACCTACCGTGGGATCGACGCGGAGTCACCTAGTGCAG” as the sequence, how does the binding signal read?
**A.** 7430 fluorescence intensity (a.u.)

**Q.** How did the binding signal turn out when “GTATCAATTAGGTCTACACGACAGGCGATATTGTTTGGTTCGGAGTCACCTAGTGCAG” was run?
**A.** 10300 fluorescence intensity (a.u.)

**Q.** For “CTCATGATTGGTATCATTAGATTTTGCGTAATCCATTTGACGGAGTCACCTAGTGCAG”, which binding signal is on record?
**A.** 40000 fluorescence intensity (a.u.)

**Q.** How did the binding signal turn out when “TTAATTTTCGTGGTTAATTAGCACCCAAGTAGCTAGGTAGCGGAGTCACCTAGTGCAG” was run?
**A.** 17300 fluorescence intensity (a.u.)

**Q.** “GTTCCAATTTCAATCAAATTTTCAATTTTGGCGTGAACTACGGAGTCACCTAGTGCAG” was tested. Which binding signal did it give?
**A.** 35200 fluorescence intensity (a.u.)

**Q.** How did the binding signal turn out when “GTACAAGTCACGTTTAAATTAATTATGATGATCTATTAGTCGGAGTCACCTAGTGCAG” was run?
**A.** 20000 fluorescence intensity (a.u.)

**Q.** How did the binding signal turn out when “GAGAGCTTAATTATCACCGATGTCCCATGCATCGATCTGCCGGAGTCACCTAGTGCAG” was run?
**A.** 7950 fluorescence intensity (a.u.)

**Q.** For “AAAAGAATTAATTGTATTAGATTAATTAAACCCTACAAAGCGGAGTCACCTAGTGCAG”, which binding signal is on record?
**A.** 34900 fluorescence intensity (a.u.)

**Q.** How did the binding signal turn out when “TAAAAGATTTGTATCACAAATTAGTCGCAATTTGTATAATCGGAGTCACCTAGTGCAG” was run?
**A.** 9610 fluorescence intensity (a.u.)

**Q.** Which binding signal does the source give for “TTATTAATTGAATATATTTTCATAATAAATTGTCTGGGGTCGGAGTCACCTAGTGCAG” here?
**A.** 51800 fluorescence intensity (a.u.)

**Q.** “GATTGTCTTGATTTGTTTTACTAGGAGGGTTCACATTTCCCGGAGTCACCTAGTGCAG” was tested. Which binding signal did it give?
**A.** 6660 fluorescence intensity (a.u.)

**Q.** For “TATTAAGTCTAATTAATCCATGATTAGCCTATGTGATGCTCGGAGTCACCTAGTGCAG”, which binding signal is on record?
**A.** 15300 fluorescence intensity (a.u.)

**Q.** For “ATAATTTGCTAATACTTAATTAATCACGTGTTAATGGATCCGGAGTCACCTAGTGCAG”, which binding signal is on record?
**A.** 36600 fluorescence intensity (a.u.)

**Q.** For “CATGGTGACAACATCAATCGACTGATCAGCAAGCACAGGCCGGAGTCACCTAGTGCAG”, which binding signal is on record?
**A.** 4140 fluorescence intensity (a.u.)

**Q.** Which binding signal does the source give for “GGAAAAGATTGGCCGCGAGCCGATTCTTGATGGCATTGTGCGGAGTCACCTAGTGCAG” here?
**A.** 6150 fluorescence intensity (a.u.)

**Q.** How did the binding signal turn out when “AGTAGCAGTAATTACTCTTGAGAGACAGAGTATCCAAAGGCGGAGTCACCTAGTGCAG” was run?
**A.** 4820 fluorescence intensity (a.u.)

**Q.** For “ATCCCCATTATATAGTTAATATTCGGTTGATTATTATCTCCGGAGTCACCTAGTGCAG”, which binding signal is on record?
**A.** 7310 fluorescence intensity (a.u.)

**Q.** With “AAAATGGGCTAATTACCATCTTACCCTTCTTCCTCCTCTCCGGAGTCACCTAGTGCAG” as the sequence, how does the binding signal read?
**A.** 6740 fluorescence intensity (a.u.)

**Q.** How did the binding signal turn out when “TGCCTTGTCATTCATGGTAATGATTGTGTGAATGATGAACCGGAGTCACCTAGTGCAG” was run?
**A.** 9130 fluorescence intensity (a.u.)

**Q.** With “TTGATTAGTACACTATGGAGATCAACGTTATGACTAAAGTCGGAGTCACCTAGTGCAG” as the sequence, how does the binding signal read?
**A.** 23600 fluorescence intensity (a.u.)

**Q.** How did the binding signal turn out when “CTGCAACAGCAATTTATCAATCATGAATCAGGAATCGATGCGGAGTCACCTAGTGCAG” was run?
**A.** 17400 fluorescence intensity (a.u.)

**Q.** How did the binding signal turn out when “GGTGAAACTGCTGATTGTAGTTAAGTGGGATCAGGTATTCCGGAGTCACCTAGTGCAG” was run?
**A.** 11200 fluorescence intensity (a.u.)

**Q.** For “GAGCTCAGCTTGCAGGGAGCTTGGGTGTGTGATCATACACCGGAGTCACCTAGTGCAG”, which binding signal is on record?
**A.** 63900 fluorescence intensity (a.u.)

**Q.** “TTTACAATTGGCTAATTCATATTATTGTTGTTAAAAGATTCGGAGTCACCTAGTGCAG” was tested. Which binding signal did it give?
**A.** 3180 fluorescence intensity (a.u.)

**Q.** Which binding signal does the source give for “CTAATTAATCCATCATTAGCAAATGTTTACTGTAGTATCACGGAGTCACCTAGTGCAG” here?
**A.** 19500 fluorescence intensity (a.u.)

**Q.** Which binding signal does the source give for “ATATTTTGAATTAGATTAAGTAATTTCATATAGTGGTAGACGGAGTCACCTAGTGCAG” here?
**A.** 4480 fluorescence intensity (a.u.)

**Q.** How did the binding signal turn out when “CCAGTCAAGGGAACAGATTGACCAATCGTTCACACCAGTGCGGAGTCACCTAGTGCAG” was run?
**A.** 18400 fluorescence intensity (a.u.)

**Q.** For “GACGATGTTAATTAATTAACTCTGGAGCATAATTTTGTGGCGGAGTCACCTAGTGCAG”, which binding signal is on record?
**A.** 27000 fluorescence intensity (a.u.)

**Q.** “AATGCAATTCCTCTGTGATTAGACAGCTGTTGCCTTTAGACGGAGTCACCTAGTGCAG” was tested. Which binding signal did it give?
**A.** 8420 fluorescence intensity (a.u.)

**Q.** For “TGCATGATTTGTTTCAGCGAGTTTCCTGGTAACTTTTCCACGGAGTCACCTAGTGCAG”, which binding signal is on record?
**A.** 18500 fluorescence intensity (a.u.)

**Q.** Which binding signal does the source give for “CTGCAGATTGACCTATCCTGGGCTTGGATCATATGCGTGCCGGAGTCACCTAGTGCAG” here?
**A.** 24700 fluorescence intensity (a.u.)

**Q.** For “CTGCTTTATTGGACTGAGATAATTTTCTACTAAAATGTTGCGGAGTCACCTAGTGCAG”, which binding signal is on record?
**A.** 6250 fluorescence intensity (a.u.)

**Q.** For “AGGGGTGATGGAAATAAAAGGATTAAACAAGAGGTCCCGGCGGAGTCACCTAGTGCAG”, which binding signal is on record?
**A.** 6710 fluorescence intensity (a.u.)

**Q.** For “AGGCACGGATTGATGCATTAATTTGGTTGCAATGTAGATGCGGAGTCACCTAGTGCAG”, which binding signal is on record?
**A.** 37500 fluorescence intensity (a.u.)

**Q.** For “CGTTTTGGCGTGATTAATTTGCATGGTAGCGCCCGCGCTTCGGAGTCACCTAGTGCAG”, which binding signal is on record?
**A.** 16100 fluorescence intensity (a.u.)

**Q.** Which binding signal does the source give for “AATAATTGTTAGTGAATGATGATCTGCCATCTTTGTATATCGGAGTCACCTAGTGCAG” here?
**A.** 38000 fluorescence intensity (a.u.)

**Q.** Which binding signal does the source give for “CCAAAATTTTGACAGGATTTCTTATGTATTTACCAAATTTCGGAGTCACCTAGTGCAG” here?
**A.** 19600 fluorescence intensity (a.u.)

**Q.** Which binding signal does the source give for “ACATTTCATCCTGATTGTTACCTAAAGTGCCCGTAGCAACCGGAGTCACCTAGTGCAG” here?
**A.** 5160 fluorescence intensity (a.u.)

**Q.** For “CTTTAAATTTACTGTAGATCTGAGGTATGAAGTCATGAGGCGGAGTCACCTAGTGCAG”, which binding signal is on record?
**A.** 7730 fluorescence intensity (a.u.)

**Q.** “TCAATCAATCACAACATTTATCAAACATTTCCATCTACTTCGGAGTCACCTAGTGCAG” was tested. Which binding signal did it give?
**A.** 28400 fluorescence intensity (a.u.)

**Q.** For “ATTTGATTGTATATTGTACTAGTGCTACTACTACGTGGAGCGGAGTCACCTAGTGCAG”, which binding signal is on record?
**A.** 60400 fluorescence intensity (a.u.)

**Q.** How did the binding signal turn out when “AGCAGTAATTAAGGAGTACCGTACAAGTTCAGGGCCGGTTCGGAGTCACCTAGTGCAG” was run?
**A.** 6700 fluorescence intensity (a.u.)

**Q.** How did the binding signal turn out when “ATTTCTGACATGATTTTCCCTAATCTATTTACAGGAGGAACGGAGTCACCTAGTGCAG” was run?
**A.** 13900 fluorescence intensity (a.u.)

**Q.** How did the binding signal turn out when “GTGTTTCTTTTCCTTGATTTGTACCATTATTTCCAGAATTCGGAGTCACCTAGTGCAG” was run?
**A.** 6590 fluorescence intensity (a.u.)

**Q.** For “ATTTAAATGAGTGAAACATTTTCGCTCTACTTAGTGAAACCGGAGTCACCTAGTGCAG”, which binding signal is on record?
**A.** 5460 fluorescence intensity (a.u.)

**Q.** “TGCTTAATTTGAATGACAAAGTGTGGCTTAAACAAACGAGCGGAGTCACCTAGTGCAG” was tested. Which binding signal did it give?
**A.** 32300 fluorescence intensity (a.u.)

**Q.** For “AAAACTCATAATGATTGGACTAACTGAATGTCGATTTCCTCGGAGTCACCTAGTGCAG”, which binding signal is on record?
**A.** 33100 fluorescence intensity (a.u.)

**Q.** With “TACGGCTAATTATGGACTAATTAGACTCAAAAGATTCATGCGGAGTCACCTAGTGCAG” as the sequence, how does the binding signal read?
**A.** 53800 fluorescence intensity (a.u.)

**Q.** How did the binding signal turn out when “AGCAAAATTAACACCGCAATTTGAGCCGGTTACTTCTTTCCGGAGTCACCTAGTGCAG” was run?
**A.** 4830 fluorescence intensity (a.u.)

**Q.** “GGGAGAGGGGAGAAGAAGATTGATTGCTGCTGCAAACTAACGGAGTCACCTAGTGCAG” was tested. Which binding signal did it give?
**A.** 3250 fluorescence intensity (a.u.)

**Q.** With “AGGAAGTATGATATTTTCAATTAACTCAAGCAATTGCAACCGGAGTCACCTAGTGCAG” as the sequence, how does the binding signal read?
**A.** 3790 fluorescence intensity (a.u.)

**Q.** Which binding signal does the source give for “TTGGATTGGAGAGACGGGACGGGAGAAGAAGAAGAAGAAGCGGAGTCACCTAGTGCAG” here?
**A.** 3350 fluorescence intensity (a.u.)

**Q.** For “ATGCCCTGTTACCTGTGTGTGATTTCTTTGTGCTCCATAACGGAGTCACCTAGTGCAG”, which binding signal is on record?
**A.** 5160 fluorescence intensity (a.u.)
